{"source": "the supplement of paper PMC4166925", "note": "± gives the standard deviation of the averaged measurements. The full ranking holds about 33,000 sequences; the median of “E-score (dimensionless, -0.5 to 0.5)” is about -0.046, and the highest 2% start at about 0.36. The list shows a part of the results."}
{"test_system": "T1, SpTbr T-box DNA-binding domain (GST fusion)", "T1 sequence": "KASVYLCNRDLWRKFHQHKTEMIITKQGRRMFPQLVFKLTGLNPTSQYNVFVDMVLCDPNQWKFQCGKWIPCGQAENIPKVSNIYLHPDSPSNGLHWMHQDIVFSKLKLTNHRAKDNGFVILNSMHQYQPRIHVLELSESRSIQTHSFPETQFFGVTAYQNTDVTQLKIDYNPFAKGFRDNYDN", "assay": "PBM E-score of 8-mer (E-score (dimensionless, -0.5 to 0.5)); Tbr is Tbrain of the sea star Patiria miniata (Pm) or the sea urchin Strongylocentrotus purpuratus (Sp); higher = stronger binding preference; most listed sequences are background and not binding sites", "settings": "the construct has about 5 more residues each side", "in_short": "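Primer extension turned Universal Agilent oligonucleotide arrays double-stranded. They were incubated with 200 nM protein in PBS (pH 7.5); the protein was a GST-fused Tbr T-box DNA-binding domain expressed in BL21 E. coli at 20 °C and purified on glutathione. Every ungapped 8-mer was scored from the scanned, quantified probe intensities, and the Universal PBM Analysis Suite gave each an enrichment E-score averaged over duplicate arrays.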"}
{"sequence": "AGCACATA", "PBM E-score of 8-mer": "0.194 ± 0.013"}
{"sequence": "ATGCTTTC", "PBM E-score of 8-mer": "0.064 ± 0.026"}
{"sequence": "GGTATTTA", "PBM E-score of 8-mer": "-0.262 ± 0.0094"}
{"sequence": "AAAAGAAG", "PBM E-score of 8-mer": "-0.153 ± 0.061"}
{"sequence": "ACGGACCG", "PBM E-score of 8-mer": "-0.0131 ± 0.013"}
{"sequence": "GAACTTGA", "PBM E-score of 8-mer": "-0.0691 ± 0.0032"}
{"sequence": "AGGTGGTG", "PBM E-score of 8-mer": "0.34049 ± 0.00016"}
{"sequence": "CTATAGAA", "PBM E-score of 8-mer": "-0.173 ± 0.0088"}
{"sequence": "GATGATCC", "PBM E-score of 8-mer": "-0.0774 ± 0.0012"}
{"sequence": "CTAACCGC", "PBM E-score of 8-mer": "0.0415 ± 0.056"}
{"sequence": "CCGGAGAG", "PBM E-score of 8-mer": "-0.14 ± 0.037"}
{"sequence": "CTAACTCC", "PBM E-score of 8-mer": "-0.0932 ± 0.053"}
{"sequence": "TTATCGAA", "PBM E-score of 8-mer": "-0.0377 ± 0.05"}
{"sequence": "ATCGTAGA", "PBM E-score of 8-mer": "-0.22 ± 0.058"}
{"sequence": "AACGAAAA", "PBM E-score of 8-mer": "-0.157 ± 0.015"}
{"sequence": "AACGAGAA", "PBM E-score of 8-mer": "-0.0184 ± 0.012"}
{"sequence": "CTTACGTA", "PBM E-score of 8-mer": "-0.191 ± 0.034"}
{"sequence": "TAGTCGGA", "PBM E-score of 8-mer": "-0.226 ± 0.059"}
{"sequence": "ATAAGAAA", "PBM E-score of 8-mer": "-0.0877 ± 0.046"}
{"sequence": "ACTAACCG", "PBM E-score of 8-mer": "-0.11 ± 0.0066"}
{"sequence": "ACCCGAGT", "PBM E-score of 8-mer": "-0.0592 ± 0.085"}
{"sequence": "AACTTTCC", "PBM E-score of 8-mer": "-0.00387 ± 0.014"}
{"sequence": "TACCTACA", "PBM E-score of 8-mer": "-0.24 ± 0.016"}
{"sequence": "AAGTGAAG", "PBM E-score of 8-mer": "0.13 ± 0.049"}
{"sequence": "AAACGGCT", "PBM E-score of 8-mer": "-0.0874 ± 0.046"}
{"sequence": "ATGGAGTG", "PBM E-score of 8-mer": "0.0521 ± 0.0097"}
{"sequence": "ACTATCAT", "PBM E-score of 8-mer": "-0.0341 ± 0.069"}
{"sequence": "AGGTTAGA", "PBM E-score of 8-mer": "-0.209 ± 0.025"}
{"sequence": "AGTTCACA", "PBM E-score of 8-mer": "0.442 ± 0.013"}
{"sequence": "TCAATCAA", "PBM E-score of 8-mer": "-0.134 ± 0.005"}
{"sequence": "CGTGCCTA", "PBM E-score of 8-mer": "-0.0792 ± 0.002"}
{"sequence": "CTCAGGCC", "PBM E-score of 8-mer": "-0.273 ± 0.0029"}
{"sequence": "ATCCCCCC", "PBM E-score of 8-mer": "-0.114 ± 0.019"}
{"sequence": "ACCGCAAC", "PBM E-score of 8-mer": "0.0768 ± 0.011"}
{"sequence": "CGTATATC", "PBM E-score of 8-mer": "-0.204 ± 0.038"}
{"sequence": "CGCCAGGC", "PBM E-score of 8-mer": "0.0802 ± 0.039"}
{"sequence": "CTTTTCCA", "PBM E-score of 8-mer": "-0.00443 ± 0.094"}
{"sequence": "AGTACTCG", "PBM E-score of 8-mer": "-0.0747 ± 0.055"}
{"sequence": "ACTCCGCT", "PBM E-score of 8-mer": "-0.0708 ± 0.048"}
{"sequence": "GCGTTATA", "PBM E-score of 8-mer": "0.116 ± 0.04"}
{"sequence": "GACTCCCA", "PBM E-score of 8-mer": "0.0282 ± 0.02"}
{"sequence": "TACGTGCA", "PBM E-score of 8-mer": "-0.0274 ± 0.019"}
{"sequence": "CACATCAA", "PBM E-score of 8-mer": "0.113 ± 0.0036"}
{"sequence": "GGGTCGTA", "PBM E-score of 8-mer": "-0.0786 ± 0.067"}
{"sequence": "GACACGAA", "PBM E-score of 8-mer": "-0.00283 ± 0.0034"}
{"sequence": "AGCTCTAG", "PBM E-score of 8-mer": "-0.216 ± 0.036"}
{"sequence": "GAATCAAC", "PBM E-score of 8-mer": "-0.0673 ± 0.072"}
{"sequence": "CATGGGTC", "PBM E-score of 8-mer": "-0.0751 ± 0.043"}
{"sequence": "CCTTGAAG", "PBM E-score of 8-mer": "-0.174 ± 0.028"}
{"sequence": "ACCCCATA", "PBM E-score of 8-mer": "-0.0252 ± 0.048"}
{"sequence": "AGAAGGAT", "PBM E-score of 8-mer": "-0.0265 ± 0.033"}
{"sequence": "ACAGTCCC", "PBM E-score of 8-mer": "0.0329 ± 0.055"}
{"sequence": "TAGGGGAA", "PBM E-score of 8-mer": "-0.114 ± 0.035"}
{"sequence": "GCATGCAC", "PBM E-score of 8-mer": "-0.121 ± 0.0081"}
{"sequence": "CCGAATCA", "PBM E-score of 8-mer": "-0.0287 ± 0.0021"}
{"sequence": "GCCATTAA", "PBM E-score of 8-mer": "-0.0677 ± 0.022"}
{"sequence": "TAGCCTCA", "PBM E-score of 8-mer": "-0.188 ± 0.019"}
{"sequence": "CTCAATCC", "PBM E-score of 8-mer": "-0.143 ± 0.0076"}
{"sequence": "GGCGACTA", "PBM E-score of 8-mer": "0.0382 ± 0.012"}
{"sequence": "ACGCCAGC", "PBM E-score of 8-mer": "0.225 ± 0.0086"}
{"sequence": "ATTTTACA", "PBM E-score of 8-mer": "0.0366 ± 0.039"}
{"sequence": "CTCCCCTA", "PBM E-score of 8-mer": "-0.263 ± 0.0042"}
{"sequence": "CGCTTGCA", "PBM E-score of 8-mer": "0.135 ± 0.0068"}
{"sequence": "CGCCGCAG", "PBM E-score of 8-mer": "-0.133 ± 0.041"}
{"sequence": "ATGGGCCC", "PBM E-score of 8-mer": "-0.202 ± 0.014"}
{"sequence": "CAACGGAC", "PBM E-score of 8-mer": "-0.00834 ± 0.036"}
{"sequence": "CTTCGTGC", "PBM E-score of 8-mer": "-0.0237 ± 0.045"}
{"sequence": "AGGGCGTC", "PBM E-score of 8-mer": "0.0922 ± 0.035"}
{"sequence": "TCCCGACA", "PBM E-score of 8-mer": "0.0227 ± 0.032"}
{"sequence": "AGACTTCA", "PBM E-score of 8-mer": "-0.0237 ± 0.0098"}
{"sequence": "AATAAGAA", "PBM E-score of 8-mer": "-0.182 ± 0.017"}
{"sequence": "AAAGAATA", "PBM E-score of 8-mer": "-0.0591 ± 0.034"}
{"sequence": "GTCCTCTA", "PBM E-score of 8-mer": "-0.287 ± 0.0061"}
{"sequence": "AATTGGTA", "PBM E-score of 8-mer": "-0.188 ± 0.025"}
{"sequence": "CCATTAGC", "PBM E-score of 8-mer": "0.0519 ± 0.085"}
{"sequence": "CGATTCAG", "PBM E-score of 8-mer": "-0.0197 ± 0.012"}
{"sequence": "GCTGTCTA", "PBM E-score of 8-mer": "0.0128 ± 0.0077"}
{"sequence": "AAGAGTCT", "PBM E-score of 8-mer": "-0.231 ± 0.075"}
{"sequence": "CAAGGTCG", "PBM E-score of 8-mer": "-0.015 ± 0.0036"}
{"sequence": "CGAGTTAA", "PBM E-score of 8-mer": "0.193 ± 0.008"}
{"sequence": "CACTGAAG", "PBM E-score of 8-mer": "-0.105 ± 0.019"}
{"sequence": "CGGGCCTC", "PBM E-score of 8-mer": "-0.179 ± 0.013"}
{"sequence": "AAAACACC", "PBM E-score of 8-mer": "0.298 ± 0.018"}
{"sequence": "ACGACAAA", "PBM E-score of 8-mer": "0.0001 ± 0.045"}
{"sequence": "CTTCAGCC", "PBM E-score of 8-mer": "-0.0849 ± 0.077"}
{"sequence": "ACGTAGCG", "PBM E-score of 8-mer": "-0.0113 ± 0.029"}
